The subject of one experiment is HSkMC. Briefly: cytotoxicity call (relative viability < 0.9). As to conditions: 10 µM.
In the next experiment the test system is HepG2. Briefly: cytotoxicity call (relative viability < 0.9). As to conditions: 10 µM.
A further experiment concerns S. aureus RN4220. Briefly: growth inhibition call (relative growth <= 0.2). As to conditions: 50 µM.

Drawing on the antibiotic and cytotoxicity screens of Wong et al. (2023), this text covers cytotoxicity call and growth inhibition call for 29 molecules.

SMILES strings stand for the structures. Some of the results follow.

Consider `O=C(O)c1cccc(-c2ccccc2)c1`, for which the cytotoxicity call in the experiment with HSkMC and in the experiment on HepG2 was “inactive” each time. Also, in the experiment on S. aureus RN4220, the growth inhibition call is “inactive”.

For `O=C(C1=C[C@H](c2ccc3c(c2)OCO3)C[C@H](OCCCCO)O1)N1CCN(Cc2ccc3c(c2)OCO3)CC1`, the cytotoxicity call in the experiment with HSkMC and with HepG2 was “inactive” throughout. In the experiment on S. aureus RN4220, the growth inhibition call is “inactive”.

With `C[C@H](CO)N1C[C@H](C)[C@H](CN(C)Cc2cccc(C(F)(F)F)c2)Oc2ncc(-c3cccc(F)c3)cc2C1=O`, the cytotoxicity call in the experiment on HSkMC is “inactive”. The cytotoxicity call in the experiment with HepG2 is “active”. Besides, the growth inhibition call with S. aureus RN4220 was “inactive”.

For the molecule `C[C@H](CO)N1C[C@H](C)[C@@H](CN(C)C(=O)Nc2ccc(C(F)(F)F)cc2)OCCCC[C@H](C)Oc2ccc(NS(=O)(=O)c3cccs3)cc2C1=O`, the cytotoxicity call with HSkMC was “inactive”. For the same molecule, in the experiment with HepG2, the cytotoxicity call was “active”. Further, in the experiment on S. aureus RN4220, the growth inhibition call is “inactive”.

Regarding `CN1C(=O)c2cc(NC(=O)Cc3cccs3)ccc2OC[C@@H]2O[C@H](CC(=O)NCCc3ccncc3)CC[C@@H]21`, the cytotoxicity call in the experiment with HSkMC and in the experiment on HepG2 was “inactive” in each case. Further, in the experiment with S. aureus RN4220, the growth inhibition call is “inactive”.

Consider `COc1ccc(S(=O)(=O)Nc2ccc3c(c2)C(=O)N([C@@H](C)CO)C[C@H](C)[C@@H](CN(C)C(=O)NC(C)C)O3)cc1`, for which the cytotoxicity call in the experiment on HSkMC and in the experiment with HepG2 was “inactive” throughout. Further, in the experiment with S. aureus RN4220, the growth inhibition call was “inactive”.

Turning to `COc1ccc(S(=O)(=O)Nc2ccc3c(c2)C(=O)N([C@H](C)CO)C[C@H](C)[C@@H](CN(C)C(=O)Nc2ccc(C(F)(F)F)cc2)OCCCC[C@@H](C)O3)cc1`, the cytotoxicity call in the experiment with HSkMC and in the experiment with HepG2 was “inactive” in each case. In addition, the growth inhibition call in the experiment on S. aureus RN4220 was “inactive”.

With `CN1CCC[C@H](C(=O)O)C1`, the cytotoxicity call with HSkMC and in the experiment on HepG2 was “inactive” in each case. Also, the growth inhibition call with S. aureus RN4220 is “inactive”.

Turning to `Cc1noc(C)c1S(=O)(=O)Nc1ccc2c(c1)C(=O)N([C@@H](C)CO)C[C@H](C)[C@H](CN(C)Cc1ccc(Oc3ccccc3)cc1)O2`, the cytotoxicity call in the experiment on HSkMC and in the experiment with HepG2 was “inactive” throughout. In addition, the growth inhibition call in the experiment on S. aureus RN4220 was “inactive”.

Consider `COc1ccc(CN(C)C[C@H]2Oc3c(NS(C)(=O)=O)cccc3C(=O)N([C@H](C)CO)C[C@@H]2C)cc1`, for which the cytotoxicity call in the experiment with HSkMC and with HepG2 was “inactive” each time. Besides, the growth inhibition call in the experiment on S. aureus RN4220 was “inactive”.

Turning to `COc1ccccc1C#Cc1ccc2c(c1)O[C@H](CN(C)Cc1cccnc1)[C@@H](C)CN([C@@H](C)CO)S2(=O)=O`, the cytotoxicity call in the experiment with HSkMC was “active”. Besides, in the experiment on HepG2, the cytotoxicity call is “inactive”. Also, the growth inhibition call in the experiment on S. aureus RN4220 was “inactive”.

With `C[C@H](CO)N1C[C@H](C)[C@@H](CN(C)Cc2ccc(Cl)c(Cl)c2)OCCCC[C@H](C)Oc2ccc(NC(=O)NC3CCCCC3)cc2C1=O`, the cytotoxicity call with HSkMC was “inactive”. Moreover, the cytotoxicity call with HepG2 was “active”. The growth inhibition call with S. aureus RN4220 was “inactive”.

As to `CN(C)CCN1C[C@@H]2CN(C(=O)[C@H]3CCCO3)C[C@H]2C1=O`, the cytotoxicity call with HSkMC and with HepG2 was “inactive” throughout. The growth inhibition call in the experiment on S. aureus RN4220 is “inactive”.

As for `Cc1ccc(S(=O)(=O)Nc2ccc3c(c2)C(=O)N([C@H](C)CO)C[C@@H](C)[C@@H](CN(C)CC2CC2)O3)cc1`, the cytotoxicity call in the experiment on HSkMC and with HepG2 was “inactive” in each case. In the experiment on S. aureus RN4220, the growth inhibition call is “inactive”.

For `C[C@@H]1CN([C@H](C)CO)C(=O)c2cc(NC(=O)C3CCCCC3)ccc2O[C@@H]1CN(C)Cc1ccc(Cl)c(Cl)c1`, the cytotoxicity call in the experiment on HSkMC and with HepG2 was “inactive” throughout. In addition, the growth inhibition call in the experiment on S. aureus RN4220 is “inactive”.

Take `C[C@@H]1CN([C@@H](C)CO)C(=O)c2cc(NS(=O)(=O)c3cn(C)cn3)ccc2O[C@@H]1CN(C)S(=O)(=O)c1cccs1`: the cytotoxicity call in the experiment on HSkMC and in the experiment on HepG2 was “inactive” in each case. In addition, the growth inhibition call with S. aureus RN4220 was “inactive”.

For `CO[C@@H]1CN(C)C(=O)c2ccc(NS(=O)(=O)c3ccccc3)cc2OC[C@@H](C)N(C(=O)NC(C)C)C[C@@H]1C`, the cytotoxicity call in the experiment with HSkMC and in the experiment on HepG2 was “inactive” in each case. Moreover, the growth inhibition call in the experiment with S. aureus RN4220 was “inactive”.

For the molecule `CC(C)CC#Cc1ccc2c(c1)O[C@H](CN(C)C(=O)c1ccncc1)[C@H](C)CN([C@@H](C)CO)S2(=O)=O`, the cytotoxicity call with HSkMC and in the experiment on HepG2 was “inactive” in each case. Moreover, the growth inhibition call in the experiment with S. aureus RN4220 was “inactive”.

Regarding `COC(=O)c1c(CC[C@@H](CO)NC(=O)N[C@@H](C)Cn2cc(C3(O)CCCCC3)nn2)oc(C(C)=O)c1C(=O)OC`, the cytotoxicity call with HSkMC and in the experiment on HepG2 was “inactive” throughout. Moreover, the growth inhibition call in the experiment on S. aureus RN4220 was “inactive”.

Turning to `COc1cc(OC)c2c(=O)cc(-c3ccccc3)oc2c1`, the cytotoxicity call in the experiment with HSkMC and with HepG2 was “inactive” throughout. Further, in the experiment on S. aureus RN4220, the growth inhibition call is “inactive”.

With `C[C@H]1CN([C@@H](C)CO)C(=O)Cc2cc(NC(=O)NC3CCCCC3)ccc2O[C@H]1CN(C)Cc1ccc(C(F)(F)F)cc1`, the cytotoxicity call in the experiment on HSkMC was “inactive”. The cytotoxicity call in the experiment with HepG2 is “active”. Further, in the experiment on S. aureus RN4220, the growth inhibition call was “inactive”.

As for `Fc1cccc(CSCc2c(F)cccc2Cl)c1`, the cytotoxicity call in the experiment on HSkMC and with HepG2 was “inactive” throughout. In the experiment with S. aureus RN4220, the growth inhibition call was “inactive”.

In the case of `C[C@@H]1CCCCO[C@H](CN(C)Cc2ccc(Cl)c(Cl)c2)[C@H](C)CN([C@@H](C)CO)C(=O)c2cc(NC(=O)c3ccccc3)ccc2O1`, the cytotoxicity call with HSkMC and in the experiment with HepG2 was “inactive” throughout. Also, in the experiment with S. aureus RN4220, the growth inhibition call was “inactive”.

In the case of `O=C(C[C@@H]1C[C@H]2c3cc(NC(=O)Cc4ccncc4)ccc3O[C@H]2[C@@H](CO)O1)NCc1cccc(F)c1`, the cytotoxicity call in the experiment with HSkMC and in the experiment with HepG2 was “inactive” each time. In addition, in the experiment on S. aureus RN4220, the growth inhibition call is “inactive”.

In the case of `CN1CCN(C(=O)C[C@@H]2CC[C@@H]3[C@H](COC[C@H](O)CN3C(=O)C3CCCC3)O2)CC1`, the cytotoxicity call with HSkMC and in the experiment on HepG2 was “inactive” in each case. Moreover, the growth inhibition call in the experiment with S. aureus RN4220 is “inactive”.

`Cc1cc(C(=O)COC(=O)Cn2cnc3c2c(=O)n(C)c(=O)n3C)c(C)n1C`: the cytotoxicity call with HSkMC and in the experiment on HepG2 was “inactive” in each case. Besides, the growth inhibition call in the experiment on S. aureus RN4220 is “inactive”.

As to `C[C@@H]1CN([C@@H](C)CO)C(=O)c2cccc(NC(=O)c3cnccn3)c2O[C@H]1CN(C)Cc1ccc(C(=O)O)cc1`, the cytotoxicity call in the experiment with HSkMC and in the experiment with HepG2 was “inactive” in each case. Moreover, the growth inhibition call in the experiment with S. aureus RN4220 was “inactive”.

In the case of `COC(=O)C1CC2=CC(=O)CCC2(C)C23OC2CC2(C)C(CCC24CCC(=O)O4)C13` (configuration not stated), the cytotoxicity call in the experiment with HSkMC and with HepG2 was “inactive” in each case. For the same molecule, the growth inhibition call in the experiment with S. aureus RN4220 is “inactive”.

Consider `N[C@H]1CCS(=O)(=O)C1`, for which the cytotoxicity call in the experiment on HSkMC (human skeletal muscle cells) and in the experiment with HepG2 was “inactive” in each case. Further, in the experiment with S. aureus RN4220, the growth inhibition call is “inactive”.
